{"source": "PubChem BioAssay AID588342", "about": "(National Center for Advancing Translational Sciences (NCATS), 2011)", "note": "The whole screen tested about 360,000 compounds, of which about 25,000 (6.9%) were called active. This list was built around the results that the source calls inconclusive (neither active nor inactive); the mix of calls is not that of the screen. Calls come from the whole dose curve; as a rule, active = well fitted inhibition curve with a large enough effect; inconclusive = small, poorly fitted or top-dose-only effect; inactive = flat fitted curve, though single readings scatter. Potencies of inconclusive entries are doubtful fits and often do not repeat. Potency is the fitted concentration of half-maximal effect; tags give direction and shape of the fitted curve."}
{"target": "Luciferin 4-monooxygenase (Photinus pyralis) (UniProt P08659)", "sequence (P08659 whole entry, looked up)": "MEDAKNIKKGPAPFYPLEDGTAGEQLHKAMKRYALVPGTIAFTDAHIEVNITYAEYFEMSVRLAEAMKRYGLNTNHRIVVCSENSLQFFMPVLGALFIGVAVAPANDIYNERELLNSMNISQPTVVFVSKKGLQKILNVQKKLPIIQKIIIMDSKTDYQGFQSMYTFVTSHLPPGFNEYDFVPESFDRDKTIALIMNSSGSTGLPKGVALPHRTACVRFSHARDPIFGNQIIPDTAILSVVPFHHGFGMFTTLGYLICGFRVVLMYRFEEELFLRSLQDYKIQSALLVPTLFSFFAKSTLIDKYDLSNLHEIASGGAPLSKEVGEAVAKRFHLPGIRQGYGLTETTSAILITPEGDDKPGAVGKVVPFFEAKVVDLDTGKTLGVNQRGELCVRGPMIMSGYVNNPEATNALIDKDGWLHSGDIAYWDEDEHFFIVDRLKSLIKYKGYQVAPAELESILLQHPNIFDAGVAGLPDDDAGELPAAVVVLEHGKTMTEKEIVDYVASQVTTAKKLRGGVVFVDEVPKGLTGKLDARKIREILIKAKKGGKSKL", "experiment": "qHTS profiling assay for firefly luciferase inhibitor/activator using purifed enzyme and Km concentrations of substrates (counterscreen for miR-21 project); note: nearly all actives have a fitted effect of over 55% in size", "details": "purified FLuc, luminescence inhibition; series mostly up to 57.5 µM", "procedure,_shortened": "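Purified P. pyralis luciferase (10nM final) with 10uM D-luciferin and 10uM ATP (Km levels) in 50mM Tris acetate pH 7.5, 10mM Mg acetate, 0.01% Tween-20, 0.05% BSA; qHTS 6-point titration, ~60 µM downward; luminescence read.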"}
{"smiles": "CC(C)C(=O)Nc1ccc(C(=O)NNC(=S)NC(=O)c2ccccc2[N+](=O)[O-])cc1", "Potency": "inconclusive: 33.8 µM [inhibitor, partial curve, poor fit]"}
{"smiles": "COc1cccc(-c2nc(SCc3cccc(Br)c3)n3[nH]c(=O)cc3n2)c1", "Potency": "inconclusive: 26.9 µM [inhibitor, partial curve]"}
{"smiles": "Cc1cc(Cl)ccc1OCCCC(=O)N1CCOCC1", "Potency": "inconclusive: 30.1 µM [inhibitor, single point]"}
{"smiles": "Cc1ccc(S(=O)(=O)CC(=O)Nc2sc(C)c(C)c2C(N)=O)cc1", "Potency": "inactive"}
{"smiles": "COc1ccc(/C=N/OCC(=O)Nc2ccc3c(c2)OCO3)c(OC)c1", "Potency": "inactive"}
{"smiles": "Cc1cc(=O)c2cc(C(=O)Nc3cccc(C)c3C)ccc2[nH]1", "Potency": "inactive"}
{"smiles": "N#C/C(=C\\c1ccccc1)C(=O)NC1CC1", "Potency": "inconclusive: 26.9 µM [inhibitor, single point]"}
{"smiles": "Cc1ccc(NC(=O)c2ccc(CSc3nnc(-c4ccncc4)n3C)cc2)c(C)c1", "Potency": "inconclusive: 16.9 µM [inhibitor, partial curve]"}
{"smiles": "COc1ccccc1C(=O)NNC(=O)CCN1C(=O)/C(=C\\c2ccccc2)SC1=S", "Potency": "inactive"}
{"smiles": "CC1CCN(C(=O)c2ccc(NC(=O)c3cccs3)cc2)CC1", "Potency": "inconclusive: 26.9 µM [inhibitor, single point]"}
{"smiles": "C=CCOn1c(C)c(C(C)=O)c2c3no[n+]([O-])c3ccc21", "Potency": "inactive"}
{"smiles": "CC/C(=N\\NC(=O)c1ccc(Br)cc1)c1ccccc1", "Potency": "inconclusive: 12 µM [inhibitor, partial curve, poor fit]"}
{"smiles": "O=C(Nc1cccc(-c2cn3cccnc3n2)c1)c1ccco1", "Potency": "inconclusive: 19 µM [inhibitor, partial curve]"}
{"smiles": "CCCc1ccc(-c2cc(N)n[nH]2)cc1", "Potency": "active: 7.57 µM"}
{"smiles": "O=c1cc(-c2ccc(O)c(O)c2)oc2ccc3ccccc3c12", "Potency": "active: 2.39 µM"}
{"smiles": "COc1ccccc1OCCNC(=O)CCNC(=O)c1ccccc1Cl", "Potency": "inactive"}
{"smiles": "Cc1ccc(NC(=O)c2cccc(NC(=O)N3CCSc4ncccc43)c2)cc1F", "Potency": "inactive"}
{"smiles": "O=C(c1cc(Cl)nc2ccccc12)N(Cc1nnc(-c2ccc(Cl)cc2)o1)C1CC1", "Potency": "inconclusive: 37.9 µM [inhibitor, single point]"}
{"smiles": "O=C(CSc1nnc(-c2ccccc2)c2ccccc12)NCCN1C(=O)CSC1=O", "Potency": "inactive"}
{"smiles": "COC(=O)C1=C(C)NC2=C(C(=O)CC(C)(C)C2)C1c1cnn(C)c1C", "note": "(stereo not given)", "Potency": "inactive"}
{"smiles": "Cc1ccc(S(=O)(=O)N(C(=O)c2ccncc2)c2ccc(OC(=O)c3ccncc3)c3ccccc23)cc1", "Potency": "inconclusive: 26.9 µM [inhibitor, partial curve, poor fit]"}
{"smiles": "Cc1cccc(Nc2ccc([N+](=O)[O-])cn2)c1", "Potency": "inconclusive: 26.9 µM [inhibitor, partial curve]"}
{"smiles": "O=C(NC(Cc1ccccc1)C(=O)NCCc1ccccn1)c1ccccc1", "note": "(stereo not given)", "Potency": "inactive"}
{"smiles": "O=C1NC(=S)S/C1=C\\c1ccc(SCc2ccccc2)o1", "Potency": "inconclusive: 23.9 µM [inhibitor, single point]"}
{"smiles": "CCC(CC)c1nnc(NC(=O)C2=COCCO2)s1", "Potency": "inconclusive: 37.9 µM [inhibitor, partial curve, poor fit]"}
{"smiles": "Cc1ccccc1NC(=O)CN1C(=O)S/C(=C\\c2ccc(-c3cccc(C(=O)O)c3C)o2)C1=O", "Potency": "inconclusive: 26.9 µM [inhibitor, single point]"}
{"smiles": "CCc1cccc(-n2nnc(S(=O)(=O)c3ccc(OC)cc3)c2C)c1", "Potency": "inactive"}
{"smiles": "CCCC(=O)Nc1nc2ccc(C(=O)OCC)cc2s1", "Potency": "inconclusive: 8.49 µM [inhibitor, partial curve, poor fit]"}
{"smiles": "O=C(N/N=C/C=C/c1ccccc1)NC1CCCCC1", "Potency": "inconclusive: 30.1 µM [inhibitor, partial curve, poor fit]"}
{"smiles": "Cc1ccc(Cn2cc(CCC(=O)NCC(C)c3ccccc3)c3ccccc32)cc1", "note": "(stereo not given)", "Potency": "inactive"}
{"smiles": "CCOC(=O)/C(=C/C=C1\\Sc2ccccc2N1CC)C(C)=O", "Potency": "inconclusive: 21.3 µM [inhibitor, single point]"}
{"smiles": "COc1ccc(Nc2nc(C(=O)NCCCN3CCOCC3)cs2)cc1", "Potency": "inconclusive: 37.9 µM [inhibitor, partial curve, poor fit]"}
{"smiles": "COc1ccc(NC(=O)Nc2cc(F)ccc2C)cc1", "Potency": "inconclusive: 26.9 µM [inhibitor, single point]"}
{"smiles": "CC(C)C1Nc2ccc(C(=O)O)cc2C2C=CCC21", "note": "(stereo not given)", "Potency": "inconclusive: 33.8 µM [inhibitor, partial curve, poor fit]"}
{"smiles": "Cc1ccc(-c2nn(-c3ccccc3)cc2C(=O)N2CCN(c3ccccn3)CC2)cc1", "Potency": "active: 15.1 µM"}
{"smiles": "COc1ccc(-c2nsc(NC(=O)c3oc4ccccc4c3C)n2)cc1", "Potency": "inconclusive: 7.57 µM [inhibitor, full curve]"}
{"smiles": "CCCNc1ncnc2c1c(-c1ccccc1)cn2-c1ccccc1", "Potency": "inconclusive: 23.9 µM [inhibitor, partial curve, poor fit]"}
{"smiles": "CC(C)(C)NC(=O)c1cccc(NC(=O)c2cccc(O)c2)c1", "Potency": "inconclusive: 19 µM [inhibitor, partial curve]"}
{"smiles": "COc1ccc(NC(=O)Nc2nnc(N3CCC(C)CC3)s2)cc1OC", "Potency": "inconclusive: 2.13 µM [inhibitor, partial curve, poor fit]"}
{"smiles": "COc1ccc2nc(NC(=O)CN(C)S(=O)(=O)c3cccs3)sc2c1", "Potency": "active: 16.9 µM"}
{"smiles": "Cc1ccc2cc3cc(C(=O)N4CCN(c5ccccc5)CC4)sc3nc2c1", "Potency": "inactive"}
{"smiles": "O=C(CSc1ccc(-c2ccc(F)cc2)nn1)NC1CCCCC1", "Potency": "inconclusive: 9.53 µM [inhibitor, partial curve, poor fit]"}
{"smiles": "COc1cccc(NC(=O)/C(C#N)=C/c2ccc(-c3ccc(C)cc3)o2)c1", "Potency": "inconclusive: 7.57 µM [inhibitor, partial curve, poor fit]"}
{"smiles": "COc1cc(OC)c(NC(=O)c2csc(C)c2)cc1Cl", "Potency": "inconclusive: 26.9 µM [inhibitor, single point]"}
{"smiles": "Cc1ccc(S(=O)(=O)Nc2cccc(-c3ccc(N4CCCC4)nn3)c2)c(C)c1", "Potency": "inconclusive: 9.53 µM [inhibitor, partial curve]"}
